In the assay the target is Flag-hTRAIL (Flag-tagged soluble human TRAIL) (human, UniProt P50591 39-281). The experiment in a line: BLI. (Biolayer interferometry detects binding as a change in optical thickness at a sensor tip.)

B1: TRAIL-R1-Fc N156A (N-glycosylation-deficient human TRAIL-R1 fused to human Fc IgG1) (Fc fusion)
chain: not shown
One may read the Kd as a measure of binding affinity in units of concentration. A high value points to a looser complex. B1 returned a Kd of 8.7 nM.

B2: TRAIL-R1-Fc WT (human TRAIL-R1 fused to human Fc IgG1, recombinant soluble receptor) (Fc fusion)
chain: not shown
modifications: N-linked glycan on N156
The molecule B2 yielded a Kd of 8 nM.

Source of the values: article PMC5344210 (Cell Death and Differentiation, 2017).
